By IC50 is meant the dose at which the fit gives 50% viability; a limit (>, <) means that the fit lies beyond the doses tested. The AUC spans the tested range (256-fold, ending at the top dose) of the same fit; values near 1 show little effect. The top dose, if marked as inferred, was calculated from the reported fits. For some assays here: Where an entry number is given, a second screen of the drug exists; the two often differ.
How the values were obtained:
AICAR = compound: NC(=O)c1ncn([C@@H]2O[C@H](CO)[C@@H](O)[C@H]2O)c1N [AICAR]; test: Viability of human cancer cell lines after 72 h of drug (GDSC screen); conditions: top dose 2000 µM; top dose inferred
Method: (§1)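 Human cancer cell lines in 384-well plates, medium with 10% serum, drug for 72 h over a 256-fold dose range (nine 2-fold or five 4-fold steps up to the top dose). Adherent lines were fixed and stained with the nucleic acid dye Syto60, suspension lines read with resazurin; signal relative to control wells, capped at 0 and 100%. One two-parameter sigmoid per drug and line, fitted in a mixed model over all curves with the slope shared within a line.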

AKT inhibitor VIII = compound: O=c1[nH]c2ccccc2n1C1CCN(Cc2ccc(-c3[nH]c4cc5ncnc5cc4nc3-c3ccccc3)cc2)CC1 [AKT inhibitor VIII]; test: as above; conditions: top dose inferred
Method: as §1

[1] = top dose 2.56 µM, screen: GDSC drug entry 171
[2] = top dose 10.24 µM, screen: GDSC drug entry 228

Cell Line	AUC (AICAR)	IC50 (AICAR) [µM]	AUC (AKT inhibitor VIII; [1])	IC50 (AKT inhibitor VIII; [1]) [µM]	AUC (AKT inhibitor VIII; [2])	IC50 (AKT inhibitor VIII; [2]) [µM]
G-MEL (melanoma, adherent)	0.979	> 2000	0.948	> 2.56	0.919	> 10.2
H2869 (mesothelioma, adherent)	0.928	> 2000	0.968	> 2.56	0.888	> 10.2
EMC-BAC-2 (lung adenocarcinoma, adherent)	0.972	> 2000	–	–	0.923	> 10.2
SW962 (urogenital system, adherent)	0.933	> 2000	0.918	> 2.56	0.886	> 10.2
COR-L23 (large cell lung carcinoma, adherent)	0.777	781	0.985	> 2.56	0.893	> 10.2
JHH-1 (liver, adherent)	0.972	> 2000	0.77	1.06	0.801	5.52
TYK-nu (ovary, adherent)	0.937	> 2000	0.948	> 2.56	0.853	8.88
JVM-3 (lymphoid neoplasm, suspension)	0.775	803	0.987	> 2.56	0.97	> 10.2
D-542MG (glioma, adherent)	0.969	> 2000	0.947	> 2.56	0.975	> 10.2
EB-3 (Burkitt lymphoma, suspension)	0.969	> 2000	0.952	> 2.56	0.734	3.36
DMS-53 (small cell lung carcinoma, adherent)	0.986	> 2000	0.976	> 2.56	0.93	> 10.2
CaR-1 (large intestine, adherent)	0.865	> 2000	0.94	> 2.56	0.948	> 10.2
WM793B (melanoma, adherent)	0.874	> 2000	0.933	> 2.56	0.878	> 10.2
SK-MEL-30 (melanoma, adherent)	0.946	> 2000	0.984	> 2.56	0.928	> 10.2
KARPAS-231 (B-cell leukaemia, suspension)	0.783	647	0.87	1.51	–	–
